We go through three molecules from PMC8899767, “Compound heterozygous variants in OTULIN are associated with fulminant atypical late‐onset ORAS” (EMBO Molecular Medicine, 2022).

B1: OTULIN^C129A (catalytically inactive OTULIN) (enzyme)
chain: not shown
notes: OTULIN (FAM105B, Gumby), human; also called OTU-deubiquitinase with linear linkage specificity; FAM105B; source: E. coli BL21 (DE3), purified (GSH-Sepharose, on-column HRV3C cleavage, gel filtration)
B2: OTULIN^C129A/M86I (enzyme)
chain: not shown
notes: OTULIN (FAM105B, Gumby), human; also called OTULIN^M86I/C129A; source: E. coli BL21 (DE3), purified (GSH-Sepharose, on-column HRV3C cleavage, gel filtration)
B3: OTULIN^C129A/W167S (enzyme)
chain: not shown
notes: OTULIN (FAM105B, Gumby), human; also called OTULIN^W167S/C129A; source: E. coli BL21 (DE3), purified (GSH-Sepharose, on-column HRV3C cleavage, gel filtration)

In the assay the target is T1, linear di-ubiquitin chains (UniProt P0CG47 in part; P0CG47 in part).
T1 construct: ubiquitin, distal unit of the M1-linked (head-to-tail) di-ubiquitin; its C-terminus is joined to M1 of the next unit; ubiquitin, proximal unit of the M1-linked (head-to-tail) di-ubiquitin; The methods say only 'di-ubiquitin chains (UbiQ)'; the results call them linear di-ubiquitin chains; also called M1-diubiquitin; source: bought: UbiQ
Description: SPR; Biacore S200; di-ubiquitin chains amine-coupled to a CM5 chip; OTULIN injected at 0.065-8 µM, multi-cycle, 30 µl/min; 150 mM NaCl, 20 mM HEPES/NaOH pH 7.5, 2 mM DTT, 0.005% Tween 20; 20°C; Kd from steady state. To be noted: both partners purified. In general terms: In SPR one partner is held on a chip, and binding of the other changes the refractive index at the surface.
In the case of B1, the Kd (in general, the concentration at which binding is half-saturated) stood at 3.3 µM. That is a single-digit micromolar value. With B2 the figure was 4.9 µM; with B3, 5.1 µM.
